Screen size: about 48,000 compounds; about 1,200 (2.5%) were called active. Roughly 2% stayed inconclusive and do not appear here.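 The calls were made as follows: active = activation of at least 60% and not above a set upper limit (about 1 call in 100 departs from these limits); inconclusive = activation of 40% to 60%, or above that upper limit; inactive = activation under 40%.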 Some of the results follow.
Molecular target: Probable G-protein coupled receptor 32 (Homo sapiens) (UniProt O75388)
Test: qHTS for Agonists of Human Resolvin D1 Receptor DRV1; also: 0% is about no effect
Details: CHO-K1 GPR32 beta-arrestin PathHunter luminescence, 90 min; at 76.9 µM; active compounds read high; zero percent set by DMSO-only wells
Summary of the method: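 Engineered CHO-K1 line co-expressing GPR32-ProLink and EA-beta-arrestin. Compound treatment lasted 90 min at 37 °C. Luminescence was recorded after 1 h with substrate at ambient temperature, relative to DMSO basal wells.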

UniProt O75388, sequence (O75388 whole entry, looked up): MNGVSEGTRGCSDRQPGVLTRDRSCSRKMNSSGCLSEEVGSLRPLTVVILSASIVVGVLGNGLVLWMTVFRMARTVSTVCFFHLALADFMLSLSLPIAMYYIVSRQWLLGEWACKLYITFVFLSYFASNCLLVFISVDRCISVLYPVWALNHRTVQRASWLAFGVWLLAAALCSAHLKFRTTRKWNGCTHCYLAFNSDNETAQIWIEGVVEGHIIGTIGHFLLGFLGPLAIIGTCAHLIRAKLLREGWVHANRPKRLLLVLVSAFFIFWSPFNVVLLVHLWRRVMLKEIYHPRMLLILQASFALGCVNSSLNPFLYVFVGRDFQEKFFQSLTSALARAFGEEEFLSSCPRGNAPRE

activation, inactive:
O=C(Nc1ccc2c(c1)OCO2)c1cc(-c2ccc(Cl)cc2)on1 10.3%
COc1ccccc1OCC(=O)Nc1c(C(=O)c2ccc(C)cc2)oc2ccccc12 -1.96%
CN(C)C1(CNC(=O)COc2ccc(C(C)(C)C)cc2)CCCCC1 8.39%
CCOC(=O)c1c(C)[nH]c(C)c1S(=O)(=O)N1CCC(C(=O)NCc2ccc(N(C)C)cc2)CC1 -22.2%
Cc1cc(C)cc(-n2ccnc(NCc3ccc(F)cc3)c2=O)c1 -5.73%
COc1ccc(Cl)cc1C(=O)Nc1c2c(nn1-c1ccc(Cl)cc1)CS(=O)(=O)C2 -1.27%
COc1ccc(Cl)cc1NC(=O)CSc1nc(=O)[nH]c2c1CCCC2 -0.779%
COc1ccccc1NC(=O)c1oc2ccccc2c1NC(=O)COc1ccccc1OC 1.01%
CCOc1ccc(CNC(=O)C2=Cc3cc(Br)ccc3OC2)cc1OC 3.72%
Cc1ccc(Cn2c(=O)n(-c3ccc(C)c(C)c3)c(=O)c3c(C)c(C)sc32)cc1 0.0204%
CCOc1ccc(NC(=O)Cn2cc(C(=O)c3ccccc3)c(=O)c3cc4c(cc32)OCO4)cc1 -1.41%
COc1cc(NC(=O)N2CCC(CN3CCc4ccccc4C3)CC2)cc(OC)c1 -20.8%
CN(C)CCOc1ccccc1Cc1ccccc1 8.28%
Cc1ccc2oc(-c3ccc(NC(=O)c4cccc(F)c4)c(C)c3)nc2c1 8.32%
CC(=O)N1c2c(cc(Br)cc2S(=O)(=O)NCc2ccccc2Cl)CC1C (stereo not drawn) 20%
COc1ccc(NC(=O)c2cc(C)nc3c2c(C)nn3-c2cccc(Cl)c2C)c(OC)c1 -15.8%
CCOc1ccc(OCC)c(NC(=O)c2csc3c2CCCC3)c1 -22.1%
Cc1ccc(-c2nnc(Nc3cccc(O)c3)c3ccccc23)cc1S(=O)(=O)N1CCCCC1 -24.8%
COc1ccc(-n2ccn(CC(=O)Nc3ccc(C)c(C)c3)c(=O)c2=O)cc1OC -9.07%
COc1ccc(-c2cn3c(n2)sc2cc(C(=O)Nc4ccc(F)cc4Cl)ccc23)cc1 -8.77%
CCOc1cc2[nH]c(=O)n(CCCC(=O)NCc3ccc(OC)cc3)c(=O)c2cc1OCC -3.14%
COC(=O)c1c(-c2cccs2)csc1NC(=O)c1cc(OC)c(OC)c(OC)c1 -8.61%
CC(C)CCNC(=O)c1nn(C)c2c1CSc1ccccc1-2 -12.8%
C=Cc1ccc(Cn2c(C(=O)O)c(CNCc3ccccc3)c3ccc(OC)cc32)cc1 -0.868%
Cc1ccc(NC(=O)C(=O)NCC(c2cccnc2)N2CCc3ccccc3C2)cc1 (stereo not drawn) -16.1%
CC1CCCN(S(=O)(=O)c2cc(C(=O)NCc3ccccc3Cl)n(C)c2)C1 (stereo not drawn) -7.85%
Cc1ccc(F)cc1NC(=O)CCSc1nc(-c2ccco2)cc(C(F)(F)F)n1 -2.59%
CCN(C(=O)c1cc2cc(Br)cc(OC)c2oc1=O)c1ccccc1 -6.03%
COc1cccc(C2c3c(-c4ccccc4O)n[nH]c3C(=O)N2Cc2cccnc2)c1 (stereo not drawn) -13.8%
O=S(=O)(Nc1ccc(-c2ccc(N3CCCC3)nn2)cc1)c1ccc(OC(F)(F)F)cc1 38.2%
O=C(NC1CCCCCC1)c1ccc(CS(=O)c2ccc(Br)cc2)o1 (stereo not drawn) 19.2%
CCc1ccccc1NC(=O)Cn1c(=O)n(-c2ccc(C)c(C)c2)c(=O)c2oc3ccccc3c21 -7.78%
Cc1ccc(NC(=O)CSCc2cnn(-c3ccccc3)c2-n2cccc2)c(Cl)c1 -23.6%
COc1ccc(CCNc2nc3ccccc3c3nc(-c4cccc(C)c4)nn23)cc1OC -20.5%
COc1cc(Br)ccc1C1C(C(=O)Nc2ccc(C)cc2C)=C(C)Nc2nnnn21 (stereo not drawn) -14.2%
Cc1ccc(CCNC(=O)c2cccc(Nc3nc4ccccc4nc3-n3nc(C)cc3C)c2)cc1 4.88%
COc1ccc(S(=O)(=O)NCCc2sc(-c3cccc(C)c3)nc2C)cc1 20.3%
CCOC(=O)c1ccc(NC(=O)CCc2c(C)nc3c(c(C)nn3C(C)(C)C)c2C)cc1 31.5%
Cc1nn(CC(=O)N2CCN(c3cccc(Cl)c3)CC2)c(=O)c2c1sc1ccccc12 -5.48%
CCc1ccc(-n2nc(C)c3c(C(=O)N4CCN(c5cccc(Cl)c5)CC4)cc(C)nc32)cc1 -12.8%
COc1cc(OC)c(NC(=O)NCc2cccn2Cc2ccccc2)cc1Cl -24.2%
CCOc1cc(C(=O)OCc2cc(=O)n3nc(C4CC4)sc3n2)cc(OCC)c1OCC -8.29%
CC(C)CCNC(=O)c1ccc(Cn2c(SCC(N)=O)nc3ccccc3c2=O)cc1 5.06%
O=C(Cn1c(=O)n(Cc2ccccc2)c(=O)c2sc3ccccc3c21)Nc1ccc(F)cc1 -3.89%
CC1=C(C(=O)N2CCN(c3ccc(Cl)cc3)CC2)C2(CCC(C)CC2)OC1=O (stereo not drawn) -12.7%
CCCCN(CC)CCCNC(=O)c1cc2c(=O)oc3ccc(C)cc3c2s1 -28.3%
CCCC(=O)Nc1ccc(OCC(O)CNC(C)C)c(C(C)=O)c1 (stereo not drawn) -9.6%
Cc1ccc(C)c(Cn2c(=O)n(CCCC(=O)NCCc3ccc(Cl)cc3)c(=O)c3ccccc32)c1 -0.443%
COc1ccc(-c2nc3sc(CCNC(=O)C(=O)Nc4ccc(C)c(C)c4)c(C)n3n2)cc1 -6.77%
CCOC(=O)c1cc(-c2ccccc2)n(CC(=O)NCc2ccccc2)c1C -13.9%
O=C(COc1ccc(Cl)cc1)NCC(c1cccs1)S(=O)(=O)c1ccc(F)cc1 (stereo not drawn) 35.6%
CCOC(=O)c1ccc(NC(=O)CC2C(=O)N(c3cccc(C)c3)C(=O)N2CCOC)cc1 (stereo not drawn) 10%
CCOc1ccc(-c2nonc2NC(=O)c2ccco2)cc1OCC -8.35%
